Laboratory results from PubChem BioAssay AID504339 (National Center for Advancing Translational Sciences (NCATS), 2011).
Out of some 390,000 compounds screened, about 17,000 (4.4%) were called active. Inconclusive results, whose numbers are uncertain, are shown with a selection of clear calls. Calls come from the whole dose curve; as a rule, active = well fitted inhibition curve with a large enough effect; inconclusive = small, poorly fitted or top-dose-only effect; inactive = no such curve, though single readings can be large or run the other way. A potency beside an inconclusive call is a rough fit, not a confirmed value. The source holds several records for some structures; these can differ, active in one and inactive in another.
% is set by controls: 0 for no effect and ±100 for the full control effect; potency is the fitted concentration of half-maximal effect; tags give direction and shape of the fitted curve.
Note: nearly all actives have a fitted effect of over 50% in size.

Each compound was assayed against Lysine-specific demethylase 4A (Homo sapiens) (UniProt O75164) (assay: qHTS Assay for Inhibitors of JMJD2A-Tudor Domain). Details: AlphaScreen JMJD2A-Tudor / H3K4me3 peptide binding; activity change, negative = inhibition: at 114 µM (top of the series).
Chain of UniProt O75164 (O75164 whole entry, looked up, the tested form may be a part): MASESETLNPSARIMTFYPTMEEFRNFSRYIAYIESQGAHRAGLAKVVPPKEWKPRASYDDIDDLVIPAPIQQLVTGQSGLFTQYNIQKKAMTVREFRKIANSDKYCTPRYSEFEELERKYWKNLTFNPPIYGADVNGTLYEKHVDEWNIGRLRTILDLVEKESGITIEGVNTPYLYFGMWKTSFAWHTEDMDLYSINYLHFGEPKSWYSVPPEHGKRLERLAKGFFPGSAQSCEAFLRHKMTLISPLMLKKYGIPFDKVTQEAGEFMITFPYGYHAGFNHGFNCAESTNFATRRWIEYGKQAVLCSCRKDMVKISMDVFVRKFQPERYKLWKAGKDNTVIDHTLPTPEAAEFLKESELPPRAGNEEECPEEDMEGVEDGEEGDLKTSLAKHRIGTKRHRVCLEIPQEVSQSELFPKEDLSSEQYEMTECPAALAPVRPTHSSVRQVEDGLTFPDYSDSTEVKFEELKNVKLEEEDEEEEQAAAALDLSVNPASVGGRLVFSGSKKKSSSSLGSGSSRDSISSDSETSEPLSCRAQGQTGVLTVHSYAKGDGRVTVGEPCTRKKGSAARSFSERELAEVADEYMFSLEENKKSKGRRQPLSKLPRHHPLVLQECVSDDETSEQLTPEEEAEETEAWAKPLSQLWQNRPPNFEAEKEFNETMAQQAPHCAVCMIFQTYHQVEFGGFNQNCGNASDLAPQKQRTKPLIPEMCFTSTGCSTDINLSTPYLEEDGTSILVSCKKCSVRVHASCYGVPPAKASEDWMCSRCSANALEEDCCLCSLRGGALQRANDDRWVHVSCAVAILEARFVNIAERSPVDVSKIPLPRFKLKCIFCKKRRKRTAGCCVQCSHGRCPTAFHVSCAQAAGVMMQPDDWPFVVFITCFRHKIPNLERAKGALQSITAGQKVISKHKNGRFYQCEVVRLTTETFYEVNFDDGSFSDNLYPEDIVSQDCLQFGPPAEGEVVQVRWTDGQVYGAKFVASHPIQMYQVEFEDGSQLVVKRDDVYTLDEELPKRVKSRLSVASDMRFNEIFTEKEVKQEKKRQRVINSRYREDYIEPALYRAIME
`O=C(CSc1ncc(-c2ccccc2)[nH]1)Nc1cccc(C(F)(F)F)c1` was tested, and the Potency was inconclusive: 50.1 µM [inhibitor, partial curve].
`CCC(=O)N1CCN(c2nc3ccc(Br)cc3s2)CC1` was tested, and the “activity change, negative = inhibition” value was inactive: 10.1%.
For `COc1ccc(S(=O)(=O)N(C)C[C@H]2Oc3c(NC(=O)Nc4ccc5c(c4)OCO5)cccc3C(=O)N([C@H](C)CO)C[C@@H]2C)cc1`, the Potency was inconclusive: 44.7 µM [inhibitor, single point].
With `COc1ccc(C2CC(c3ccccc3OC(C)=O)=NN2C(C)=O)cc1` (stereo not given) the “activity change, negative = inhibition” value was inactive: -7.35%.
In the case of `Cc1ccc(-c2n[nH]c(=O)c3ccccc23)cc1N`, the “activity change, negative = inhibition” value is reported as inactive: -9.63%.
For `Nc1ccc2c(c1)Nc1ccccc1CC2`, the Potency was active: 50.1 µM.
With `COc1ccc(/C(O)=C2/C(=O)C(=O)N(c3ccccn3)C2c2ccc(F)cc2)cc1` (stereo not given) the “activity change, negative = inhibition” value was inactive: -16.3%.
For `CC1CCCC(C)N1/N=C/c1ccc(O)c(O)c1` (stereo not given), the Potency was active: 22.4 µM.
For `Cn1c(=O)cc(SCC(=O)N2CCN(c3ccccc3F)CC2)c2cc(Cl)ccc21`, the “activity change, negative = inhibition” value was inactive: -20.2%.
For `COC(=O)c1cc(=O)n(-c2ccc(F)cc2)c(=Nc2ccc(F)cc2)s1`, the Potency was inconclusive: 44.7 µM [inhibitor, partial curve].
With `O=C(O)c1cccc(NC(=S)N/N=C/c2ccccn2)c1` the Potency was active: 25.1 µM.
For `COc1ccc(-c2cc(C(C)=O)c(C)n2CCC(=O)Nc2ccc(C(F)(F)F)cc2)cc1`, the “activity change, negative = inhibition” value was inactive: -19.2%.
For `O=C(NN1C(=O)/C(=C/C=C/c2ccco2)SC1=S)c1ccncc1`, the Potency was active: 14.1 µM.
In the case of `COC(=O)/C=C/c1ccccc1S(=O)(=O)N(Cc1ccccc1)Cc1ccco1`, the Potency is reported as active: 56.2 µM.
For `Cc1cc(C)nc(-n2nc(C)c3c2NC(=O)CC3c2cc(F)ccc2F)n1` (stereo not given), the “activity change, negative = inhibition” value was inactive: -11.6%.
For `CC12CCC(=O)C=C1CCC1C2CCC2(C)C(c3csc(N)n3)CCC12` (stereo not given), the “activity change, negative = inhibition” value was inactive: -5.48%.
With `CC(C)Oc1ccc(/C(O)=C2/C(=O)C(=O)N(CCCn3ccnc3)C2c2cccnc2)cc1` (stereo not given) the “activity change, negative = inhibition” value was inactive: -8.33%.
`O=C(CCc1nnc2n(Cc3ccccc3)c(=O)c3ccccc3n12)NCCN1CCOCC1` was tested, and the Potency was inconclusive: 8.91 µM [inhibitor, full curve, poor fit].
With `O=C(Nc1cnc(N2CCC(N3CCCCC3)CC2)c(C(=O)O)c1)c1ccc(Br)cc1` the Potency was active: 79.4 µM.
In the case of `Cc1ccc(C(C)C)c(OCCN2CCc3ccccc3C2)c1`, the “activity change, negative = inhibition” value is reported as inactive: 2.16%.
For `COc1ccc(S(=O)(=O)N2CCN(CC(=O)Nc3cccc(OC)c3)CC2)cc1`, the “activity change, negative = inhibition” value was inactive: -5.92%.
`CCN(CC)c1ccc(NC(=O)c2ccco2)cc1` was tested, and the Potency was inconclusive: 35.5 µM [inhibitor, partial curve].
In the case of `O=S1(=O)C=C(SCc2ccc(Cl)c(Cl)c2)Nc2ccccc21`, the “activity change, negative = inhibition” value is reported as inactive: -33.2%.
With `CCOC(=O)c1c(NC(=S)NCC2CCCO2)sc(C)c1C` (stereo not given) the Potency was inconclusive: 89.1 µM [inhibitor, partial curve].
`CCCOc1ccc(N2CC(C(=O)Nc3ccccc3F)CC2=O)cc1` (stereo not given) was tested, and the “activity change, negative = inhibition” value was inactive: -7.52%.
`COc1ccc(-c2ccc(=O)n(Cc3cccc([N+](=O)[O-])c3)n2)cc1` was tested, and the Potency was inconclusive: 44.7 µM [inhibitor, partial curve, poor fit].
For `COc1ccc(N2CCN(C(C)C(=O)N3CCCC3)CC2)cc1` (stereo not given), the Potency was active: 0.794 µM.
For `O=C1c2ccc(Cl)cc2S(=O)(=O)c2cccc(C(=O)N3CCC(Cc4ccccc4)CC3)c21`, the Potency was inconclusive: 28.2 µM [inhibitor, partial curve].
For `C=CC1=C(C(=O)O)N2C(=O)[C@@H](NC(=O)/C(=N\OCC(=O)O)c3csc(N)n3)[C@H]2SC1`, the Potency was active: 20 µM.
`C[C@H]1CCC[C@@]2(O[C@@H](CCO)C[C@@H](O)[C@@H]2O)O1` was tested, and the “activity change, negative = inhibition” value was inactive: -22.7%.
`CC1(C)C2CCC(C2)C1(C)NC(=O)CNCc1cccs1` (stereo not given) was tested, and the Potency was active: 25.1 µM.
In the case of `COc1ccc(CCNC(=O)CCSCc2ccccc2Cl)cc1OC`, the “activity change, negative = inhibition” value is reported as inactive: -7.65%.
With `O=c1c2ccccc2nc(SCc2cn3ccsc3n2)n1-c1ccccc1` the Potency was inconclusive: 79.4 µM [inhibitor, partial curve].
In the case of `NC(=S)NN=C(c1ccc(F)cc1)C1CC1`, the Potency is reported as inconclusive: 0.708 µM [inhibitor, full curve, poor fit].
For `CCC(CO)Oc1cc(NCc2cccc(Cl)c2)c2ncn(C(C)C)c2c1` (stereo not given), the Potency was active: 25.1 µM.
With `CC1=CS/C(=C(/C#N)C(=O)NCc2ccco2)N1c1ccccc1` the “activity change, negative = inhibition” value was inactive: -0.69%.
In the case of `O=c1c2cn[nH]c2[nH]c(=S)n1-c1ccccc1F`, the Potency is reported as inconclusive: 79.4 µM [inhibitor, partial curve].
In the case of `O=C(NCC1COc2ccccc2O1)c1cc(S(=O)(=O)N2CCOCC2)c(Cl)cc1Cl` (stereo not given), the “activity change, negative = inhibition” value is reported as inactive: -18%.
In the case of `COc1cc(C2C3=C(CC(C)(C)CC3=O)OC3=C2C(=O)CC(C)(C)C3)cc([N+](=O)[O-])c1O`, the Potency is reported as inconclusive: 89.1 µM [inhibitor, partial curve].
In the case of `Cc1ccc(C)c(N2CCN(S(=O)(=O)c3cnc(N)nc3)CC2)c1`, the “activity change, negative = inhibition” value is reported as inactive: -22.3%.
For `Nc1ccccc1Sc1ccccc1[N+](=O)[O-]`, the Potency was inconclusive: 50.1 µM [inhibitor, partial curve].
With `COc1ccc(NC(=O)CNCc2ccc(Cl)cc2)cc1S(=O)(=O)N1CCOCC1` the Potency was active: 3.55 µM.
In the case of `CCN1CCN(C(=O)c2ccc3c(=O)n(Cc4ccccc4OC)c(=S)[nH]c3c2)CC1`, the Potency is reported as inconclusive: 56.2 µM [inhibitor, partial curve].
`N#CCCn1cc(C(=O)Nc2ccccn2)c(-c2ccccc2)n1` was tested, and the Potency was inconclusive: 89.1 µM [inhibitor, single point].
For `Cc1cccc(-c2n[nH]c(=S)n2/N=C/c2ccc(C)s2)c1`, the Potency was inconclusive: 70.8 µM [inhibitor, single point].
In the case of `OC(COCC1COc2ccccc2O1)CN1CCN(c2ccccc2)CC1` (stereo not given), the Potency is reported as inconclusive: 50.1 µM [inhibitor, partial curve].
With `CC(C)c1ccc(NC2(C#N)C(=O)Nc3ccccc32)cc1` (stereo not given) the Potency was inconclusive: 79.4 µM [inhibitor, partial curve].
For `NC(=O)CSc1nnc(Cc2csc(Nc3ccccc3)n2)n1Cc1ccccc1`, the Potency was inconclusive: 79.4 µM [inhibitor, partial curve].
In the case of `COC(=O)c1cc(=O)n(Cc2ccco2)c(=Nc2ccc(F)cc2)s1`, the Potency is reported as inconclusive: 44.7 µM [inhibitor, partial curve].
In the case of `COc1ccc(C2C(=O)N(C3CCCCCC3)CC(=O)N2CCC2=CCCCC2)cc1` (stereo not given), the “activity change, negative = inhibition” value is reported as inactive: -13.1%.
With `Cn1c(=O)n(C)c2cc(S(=O)(=O)NCCOCCO)ccc21` the “activity change, negative = inhibition” value was inactive: -8.59%.
In the case of `CCn1c(CNc2ccc(OC)cc2)nnc1SCC(=O)Nc1ccc(F)cc1`, the Potency is reported as inconclusive: 100 µM [inhibitor, partial curve].
`C=CCOc1ccc(CNc2ccc(NC(=O)CC(C)C)cc2)cc1OC` was tested, and the Potency was inconclusive: 56.2 µM [inhibitor, partial curve].
In the case of `COc1cc(OCc2ccccc2)c(C(=O)/C=C/c2ccc3c(c2)OCO3)c(OC)c1OC`, the Potency is reported as inconclusive: 63.1 µM [inhibitor, single point].
In the case of `O=C(Nc1ccc(Cc2ccncc2)cc1)C1CCC(N2C(=O)C3C4C=CC(C5CC45)C3C2=O)CC1` (stereo not given), the “activity change, negative = inhibition” value is reported as inactive: -23%.
For `Cn1nc(C(=O)Nc2ccccc2N2CCCC2)c2ccccc2c1=O`, the Potency was inconclusive: 56.2 µM [inhibitor, partial curve].
With `Clc1cccc2c3c([nH]c12)CCNC3` the “activity change, negative = inhibition” value was inactive: -6.78%.
`CC(NC(=O)/C(=C/c1ccc2c(c1)OCO2)NC(=O)c1cccc([N+](=O)[O-])c1)C(=O)O` (stereo not given) was tested, and the Potency was inconclusive: 39.8 µM [inhibitor, single point].
In the case of `Cc1ccc(OS(=O)(=O)c2ccccc2)c(/C=N/N=C2\NC(=O)C(C)S2)c1` (stereo not given), the Potency is reported as inconclusive: 79.4 µM [inhibitor, single point].
With `Oc1ccc(CN2CCCCC2)c2cccnc12` the Potency was active: 8.91 µM.
For `CCN(CC)c1ccc(NC(=O)c2cc(Cl)ccc2OC)cc1`, the Potency was active: 44.7 µM.
In the case of `COc1ccc(C(C(=O)NCC2CCCO2)N(Cc2cccs2)C(=O)c2snc(C(N)=O)c2N)cc1` (stereo not given), the “activity change, negative = inhibition” value is reported as inactive: -17.2%.
With `Cc1ccc(SCc2[nH]nc3c2C2(C(=O)Nc4ccc([N+](=O)[O-])cc42)C(C#N)=C(N)O3)cc1` (stereo not given) the Potency was inconclusive: 50.1 µM [inhibitor, partial curve].
For `CC(=O)c1ccc(C(=O)N2CCc3c([nH]c4ccccc34)C2c2cccc(C)n2)s1` (stereo not given), the Potency was inconclusive: 35.5 µM [inhibitor, partial curve].
`CCc1ccc(OCC(=O)Nc2ccc(-c3nc4ncccc4o3)cc2)cc1` was tested, and the Potency was inconclusive: 10 µM [inhibitor, full curve].
For `Cc1nc(Nc2ccc(S(=O)(=O)N3CCCCC3C)cc2)c2nnn(Cc3ccccc3)c2n1` (stereo not given), the “activity change, negative = inhibition” value was inactive: -26.2%.
`CCOC(=O)/C(C#N)=C\c1cc(OC)c(OC)cc1[N+](=O)[O-]` was tested, and the Potency was active: 11.2 µM.
For `CC(C)[C@@H](C(=O)NCc1ccco1)N1C(=O)N2CCc3c([nH]c4ccccc34)[C@@]2(C)C1=O`, the Potency was inconclusive: 63.1 µM [inhibitor, partial curve, poor fit].
`O=C(NCc1ccccn1)c1ccc(OC2CCN(Cc3ccc(CO)o3)CC2)cc1` was tested, and the “activity change, negative = inhibition” value was inactive: -12.5%.
With `COc1ccc(Cc2nnc(N/N=C(\C)c3ccccc3)[nH]c2=O)cc1OC` the “activity change, negative = inhibition” value was inactive: -35.1%.
In the case of `O=C(CN1CCCc2ccccc21)NC(=O)NCc1ccco1`, the Potency is reported as inconclusive: 39.8 µM [inhibitor, partial curve].
`Cc1ccc2c(c1)nnn2C1CCN(CC(=O)N2c3ccccc3CC2C)CC1` (stereo not given) was tested, and the “activity change, negative = inhibition” value was inactive: -28.3%.
With `COc1ccc(-c2nc(C(=O)NCCCN3CCOCC3)cc3c2[nH]c2ccccc23)cc1OC` the Potency was inconclusive: 56.2 µM [inhibitor, partial curve].
`COc1ccc(OC)c(NC2=C(Cl)C(=O)N(Cc3ccccc3)C2=O)c1` was tested, and the Potency was active: 14.1 µM.
For `CCNC(=O)NC(=O)COC(=O)c1ccccc1SCC(=O)NC(=O)NCC`, the Potency was inconclusive: 7.08 µM [inhibitor, single point].
